Laboratory results as given in the supplement of paper PMC11417369.
± gives the standard deviation of the averaged measurements. The list shows a part of the results.

System: PfAP2-LT AP2 domain (GST-tagged)
Test: gcPBM binding intensity (ln(normalized median fluorescence intensity)); higher = stronger DNA binding
Summary of the method: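 In this array assay, P. falciparum DNA-binding domains with a GST tag, expressed in E. coli, were applied for 1 h to primer-extended double-stranded 36-bp intergenic genomic probes and negative controls on an Agilent 4 × 180k array. Bound protein was visualised with Alexa488 anti-GST antibody at 488 nm. Binding intensity is the highest Masliner-normalised natural-log median intensity across replicate spots of either probe orientation.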

Row | Sequence | gcPBM binding intensity (ln)
1 | CTTATAATATTACGGGTGCTATAAATACATTATATT | 8.83 ± 0.3
2 | TAAATCAAAAACAACAAGTCATATTAAAGATGGTAT [CACACA_negctrl_site1321] | 8.89 ± 0.45
3 | TTGTTTCAAAATTAAACACACACAAAAAAAAAAAAA [CACACA_site8856] | 8.86 ± 0.52
4 | AAGGAAAACAGTAGGTGTACCAAACGTCCTAGGAAC [XGTACX_site3659] | 9.18 ± 0.45
5 | TATATTTATATCATCACACATTTTTTTTTTCTTTTT [CACACA_site6150] | 8.64 ± 0.52
6 | ATATATAATAATTGTAGTACAATTAATAAATAAAAT [XGTACX_site3840] | 8.85 ± 0.52
7 | TATATATATATAATTTGTACACACAAATATGCATAT [XGTACX_site7297] | 9.19 ± 0.33
8 | TCCTCATTTTATCATACACACTTGTTTATATGTGTG [CACACA_site6548] | 9.23 ± 0.38
9 | ATACGATTGCAGTCAAAAAGGAAAATATAAAAAAAG [XGTACX_negctrl_site124] | 8.7 ± 0.57
10 | TTATCATTTTAAATCACACACATATATAAATATGTA [CACACA_site7359] | 8.77 ± 0.28
11 | AATATTTATAAATTTACACACACACCCGTGAACATA [CACACA_site1910] | 9.6 ± 0.36
12 | TGGGGTATTAAAAAAACACACAAAAAAAATATAAAG [CACACA_site1915] | 8.74 ± 0.64
13 | GATAATAATAAGTGTACACATATATTTAGAAGAGTA [CACACA_site4245] | 9.04 ± 0.54
14 | AAAATGTATATTGGCGCATGTAAACAAATACTATAC [TGCATGCA_site385] | 9.27 ± 0.42
15 | TCAAAATGTGACATAAAAGAAAAAAAAAAAAAAAAA [CACACA_negctrl_site1092] | 8.49 ± 0.45
16 | ATATATATGTATGTATATATATATATATATGTTTGA [CACACA_negctrl_site107] | 9.24 ± 0.2
17 | TTTTTTTTTCTGTATACACACAAAATTTATTTTTTA [CACACA_site2873] | 8.84 ± 0.5
18 | TTAATAACGTAATGTAAATGTTTCATACCCTTTTTT [CACACA_negctrl_site988] | 8.61 ± 0.42
19 | AAAGAAGGGGGGGGAAAAAAAAATAAAAGAGGAAAA [XGTACX_negctrl_site92] | 8.82 ± 0.41

Row | Sequence | gcPBM binding intensity (ln)
20 | ATAAAATAAAAACATGCACACTTTATTTTTTTTAAG [CACACA_site5545] | 8.63 ± 0.42
21 | AAATTTAGTAAAAAATGTACGTAAAATGTAAAATAT [XGTACX_site1314] | 9.01 ± 0.44
22 | ATACTAACATTTTTTTGTACATATAACTATAAAATA [XGTACX_site1033] | 8.5 ± 0.44
23 | AAGGTAAACGGACACACACACATACAAAAAAAAAAA [CACACA_site5961] | 9.77 ± 0.67
24 | TGATATTATAGATATACACACATGTATGTATTTATA [CACACA_site6758] | 8.97 ± 0.35
25 | AGACCTATGATATATACACACATATAAATAAATATA [CACACA_site6725] | 9.09 ± 0.4
26 | TTATTAAATATAAATATGTATCTTTTATGTTATATT [CACACA_negctrl_site306] | 8.59 ± 0.43
27 | TATTTTACGACATACCAAAAAAAAAAAAAAAAAATA [CACACA_negctrl_site1254] | 8.33 ± 0.45
28 | AAAAAAAAAAGACACACACACATAGACCTCCAATAG [CACACA_site7646] | 9.79 ± 0.25
29 | TAAATCCGCAGGCACACACACATATTAATAAAAAAA [CACACA_site3991] | 9.59 ± 0.56
30 | AATGTTAAACTATGATGTACGGTTAAAAATATAATT [XGTACX_site893] | 8.72 ± 0.42
31 | TATATATTATATAAATAAATAAATATATATATTTAT [TGCATGCA_negctrl_site270] | 8.23 ± 0.36
32 | AATGATTTTGATTAACGTACGTACAAATATATATAT [XGTACX_site6604] | 8.78 ± 0.32
33 | AAAAAAAATACAAAAAGTACAAAAAATACAAAAAAA [XGTACX_site8844] | 8.88 ± 0.56
34 | ATGTATATATATATATGTACATATTTTTTATATGTA [XGTACX_site441] | 8.83 ± 0.38
35 | TTTAAAATAAATTAATAGAACAAAAATAAAATGATT [GTGCAC_negctrl_site375] | 8.48 ± 0.39
36 | TTCTTTTTTTAAAGAAGTACTATATTTTAAATTATA [XGTACX_site5059] | 8.2 ± 0.52
37 | AATTTTATTACTTTTACACACCTATATATCATTCAT [CACACA_site7525] | 9.13 ± 0.43
38 | TAGGGATTATACCACACACACATACACATAAATATA [CACACA_site3178] | 9.63 ± 0.33

Row | Sequence | gcPBM binding intensity (ln)
39 | AAGAATAAGGAAAAATGTACAGAATGCACATATGAA [XGTACX_site4705] | 8.89 ± 0.48
40 | ACCTTAAATAATACATGTACAAAAAAATTTATAATA [XGTACX_site1043] | 8.76 ± 0.52
41 | TTTCAAATGATTAAGTGTACATGTTTGCTTGCTCTT [XGTACX_site4697] | 9.01 ± 0.38
42 | TTTTTTTTTGTTATGTTGCACTTTGCCATATTATTA [GTGCAC_site9844] | 8.93 ± 0.49
43 | AATAATAAAAAAAGTGCACACACATAATATATATAT [CACACA_site9100] | 9.34 ± 0.36
44 | TATAAAAAAATAAAAGGAATATACTTGCAAAGGGTA [CACACA_negctrl_site1438] | 8.86 ± 0.39
45 | AACAATATATTGATATTATTTTAAGTGATTATATAT [XGTACX_negctrl_site205] | 8.57 ± 0.33
46 | ATGTAAGTAATTATCTGTACACATAATATATATATA [XGTACX_site2618] | 8.99 ± 0.42
47 | AATATAAAAAATAATACACACACATGGCGACAAAAT [CACACA_site8765] | 9.69 ± 0.28
48 | AGGATAAAAGTTATGGTGCATTAACCTATTTAAATA | 8.56 ± 0.42
49 | TATATAGGTATATATACACACAACGGTTATAAATAT [CACACA_site4759] | 9.13 ± 0.33
50 | TATAAAGACACGAAAACACACATATGTAAATATATA [CACACA_site8056] | 9.21 ± 0.4
51 | TACATATTACTATTCAGTACATATTTTTTTTTCATT [XGTACX_site7468] | 8.81 ± 0.57
52 | TAGTTTTGAAAACAAACACACAAAAAAAAAAAAAAA [CACACA_site1692] | 8.63 ± 0.45
53 | CACATAAATAATTAAACACACATTGTTCTAGACAAT [CACACA_site2378] | 8.88 ± 0.41
54 | TTTGAGTTACTATTCACACAAAATGGATAAATTAAT [CACACA_site5626] | 8.59 ± 0.4
55 | AAACCGTGGGAGCACACACACACACCCACCCATATA [CACACA_site332] | 9.88 ± 0.26
56 | ATAATAACAAAATATTAACACACATAACATATTATA [CACACA_site8906] | 9 ± 0.37
